We go through 27 molecules from PubChem BioAssay AID485344 (National Center for Advancing Translational Sciences (NCATS), 2010).

Out of some 340,000 compounds screened, about 6,900 (2%) were called active. No stated cut-off is given here; in the data, active means inhibition above about 30%; inactive means below that, where a call was filed. This is a selection; strong and weak results do not stand in their true shares. Entries without a call were filed so in the source.

The target of this test is D(2) dopamine receptor (Homo sapiens) (UniProt P14416). Kind of test: HTS Assay for Allosteric Antagonists of the Human D2 Dopamine Receptor: Primary Screen for Antagonists. Further: 0% is about no effect. To be noted: HEK293 TREx D2 cells, calcium flux, dopamine EC80; at 10 µM; stronger effect = higher value. In outline: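 In this primary screen, negative modulation is detected by tracking calcium flux after an EC80 dopamine challenge in inducible HEK293 T-REx D2 cells preexposed to test compound for 180 s.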
Chain of UniProt P14416 (P14416 whole entry, looked up): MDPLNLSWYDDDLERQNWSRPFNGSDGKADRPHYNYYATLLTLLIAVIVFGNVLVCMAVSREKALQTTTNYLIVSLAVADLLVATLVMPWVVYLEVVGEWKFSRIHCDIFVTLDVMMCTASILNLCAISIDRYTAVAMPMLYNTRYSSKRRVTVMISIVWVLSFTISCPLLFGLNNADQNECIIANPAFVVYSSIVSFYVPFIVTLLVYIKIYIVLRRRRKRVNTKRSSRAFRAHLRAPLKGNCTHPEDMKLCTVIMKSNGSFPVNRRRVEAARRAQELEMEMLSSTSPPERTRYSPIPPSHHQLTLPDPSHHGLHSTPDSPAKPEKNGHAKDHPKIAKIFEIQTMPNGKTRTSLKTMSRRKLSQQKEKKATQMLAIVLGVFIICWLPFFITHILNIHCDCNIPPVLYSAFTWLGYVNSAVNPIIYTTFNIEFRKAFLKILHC
`CCn1cc2nc(SCc3cccc(C(F)(F)F)c3)n(Cc3ccc(OC)cc3)c(=O)c2n1`: the inhibition was -11%.

Consider `COc1cc(Cl)c(C)cc1NC(=O)Cn1c(C)c2cnn(-c3ccccc3)c(=O)c2c1C`, for which the inhibition worked out at 0.206%.

Take `CC(=O)Nc1c(C)nn(-c2ccccc2)c1N1CCC(C(=O)NCc2ccc(F)cc2)CC1`: the inhibition was -5.02%.

For the molecule `C=C(C)Cn1c(SCC(=O)c2ccccc2)nc2sc3c(c2c1=O)CCCC3`, the inhibition stood at 1.96%.

Take `CC(=O)c1ccc(NC(=O)CSc2nnc(N)s2)cc1`: the inhibition was determined as 20.1%.

For `O=C(Nc1cccc(C(F)(F)F)c1)C1CCN(S(=O)(=O)c2cccs2)CC1`, the inhibition was 18.9%.

In the case of `Cc1cc(C)cc(-n2c(SCC(=O)N3CCCCCC3)nc3c([nH]c4ccccc43)c2=O)c1`, the inhibition is -20.5%.

Consider `CCS(=O)(=O)c1ncc(Cl)c(C(=O)NCc2ccccc2)n1`, for which the inhibition is -11.1%.

As for `O=C(Nc1cc(F)ccc1F)c1ccc(CN2CC(=O)N3CCCCC3C2=O)cc1` (configuration not stated), the inhibition is 23%.

As to `COc1ccc(-c2cc(=O)oc3c4c(ccc23)OCN(Cc2ccccc2)C4)cc1`, the inhibition amounted to 6.48%.

With `CC1CCN(CCCCOc2ccc(F)cc2)CC1`, the inhibition was active: 44.2%.

Regarding `O=C(CNC(=O)c1ccccc1)OCc1cc(=O)n2nc(C3CC3)sc2n1`, the inhibition was determined as 12%.

Consider `O=c1c2oc3ccccc3c2n(Cc2ccc(Cl)cc2)c(=O)n1Cc1ccccc1`, for which the inhibition was 13.8%.

In the case of `CCC1CCCCN1C(=O)CCS(=O)(=O)c1cc2c(cc1C)NC(=O)CO2` (configuration not stated), the inhibition was -4.35%.

Consider `Cc1ccc(Nc2c(-c3ccc(C)o3)nc3cccc(C)n23)cc1`, for which the inhibition came out at 1.2%.

Consider `CCOC(=O)c1c(C)[nH]c(C)c1S(=O)(=O)N1CCC(C(=O)Nc2ccc(C)c(N(C)C)c2)CC1`, for which the inhibition worked out at 4.18%.

For `Cn1cc(C(=O)NCCc2ccccc2)c(=O)c2cc(S(=O)(=O)N3CCCCC3)ccc21`, the inhibition is 3.24%.

In the case of `CC(C)(C)OC(=O)N1CCC(c2c(C(=O)N3CCN(Cc4ccccc4)CC3)cnn2-c2ccc(Cl)cc2)CC1`, the inhibition was -17.6%.

Take `Cc1cc(-c2ccc(C)c(S(=O)(=O)NCc3cccs3)c2)on1`: the inhibition is -2.43%.

Regarding `CCc1ccc(N2C(=O)CN(S(=O)(=O)CC)CC2(C)C(=O)NC2CCCCC2)cc1` (configuration not stated), the inhibition worked out at 17.8%.

Take `Cc1ccc(NC(=O)c2oc3ccccc3c2NC(=O)C23CC4CC(CC(C4)C2)C3)cc1`: the inhibition is -27.8%.

Turning to `NS(=O)(=O)c1ccc(CCNC(=O)CNC(=O)c2ccc(Br)o2)cc1`, the inhibition was active: 65.8%.

In the case of `Cc1oc2cc(O)ccc2c(=O)c1Oc1ccccc1Br`, the inhibition was active: 36.6%.

Turning to `COc1ccc(C(=N/O)/C(=N/O)c2ccc(OC)cc2)cc1`, the inhibition is active: 39.6%.

Consider `Cc1ccc(C(=O)NCc2ccccc2)cc1NC(=O)c1nsc2ccccc12`, for which the inhibition turned out to be 2.93%.

On to `CCOc1ccc(Nc2ncnc3scc(-c4ccc(OC)cc4)c23)cc1`, for which the inhibition amounted to 21%.

In the case of `CCc1ccc(OCC(=O)Nc2cc(-c3nc4cc(C)ccc4o3)ccc2C)cc1`, the inhibition was -10.6%.
